The source gives no read counts; variants with many changes may rest on few reads.
B1: CPEB3 Ribozyme (parent)
chain: UAACAGGGGGCCACAGCAGAAGCGUUCACGUCGCAGCCCCUGUCAGAUUCUGGUGAAUCUGCGAAUUCUGCUGUAUAUCUC

Variants of: B1
Assay: self-cleavage, relative activity (ratio to wild type); higher = more cleavage; in vitro, sequencing
Outline: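 Libraries of CPEB3 self-cleaving ribozyme mutants came from rounds of error-prone PCR and carried barcodes, which DNA sequencing matched to variants. In vitro transcription used T7 RNA polymerase at 37°C for 5 hours, with a further 15 min in DNase I before EDTA stopped the reaction; the ribozymes cleaved during both steps. The RNA was reverse transcribed with template switching and sequenced on Illumina. Relative activity is the cleaved/total read fraction of a variant divided by that of the unmutated ribozyme, averaged over three batches with at least 5 reads.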
Work on G9U A13U A20G yielded a self-cleavage of 0.48.
G9C C11G A45U U72G showed a self-cleavage of 0.16.
With G10A A13G U49A the self-cleavage was 0.05.
Variant G9C A56U A65U U67C has a self-cleavage of 0.11.
For G9U A20G A45G U54A U80A, the self-cleavage was 0.18.
In the case of G9U A18U A45G, the self-cleavage is reported as 0.44.
With G9U U48C U49C U67C the self-cleavage was 0.06.
Work on G9U U26C A47G U76A yielded a self-cleavage of 0.21.
With G9U C14U A35G C40A A57G U74G the self-cleavage was 0.07.
G9C U43C U48C U80A showed a self-cleavage of 0.05.
G9U C38U U78C showed a self-cleavage of 0.2.
G9C C12U G36U U41A A77G showed a self-cleavage of 0.04.
With G9U U48C C59U the self-cleavage was 0.36.
G9U A18G U60C U67C showed a self-cleavage of 0.04.
G9A U66C U69A gave a self-cleavage of 0.32.
Variant G9C C14U A75G C81A has a self-cleavage of 0.04.
G10A A13G C38U U80C showed a self-cleavage of 0.04.
For G10A A15U U48C A57U, the self-cleavage was 0.23.
Variant G10A A13U U25G U48C U69C has a self-cleavage of 0.19.
In the case of G9U A20G C44U U76A A77U, the self-cleavage is reported as 0.03.
With G9A U58C A77C the self-cleavage was 0.06.
Variant G9U A15U C29U U54A A56G A57U has a self-cleavage of 0.04.
G9U A20U U41C G52A U67A U76A gave a self-cleavage of 0.12.
For G9U A13G U26C A64U, the self-cleavage was 0.16.
With G9C C23U A28G A35C A65U the self-cleavage was 0.12.
For G9U U31C U49C G52U A65U U69A, the self-cleavage was 0.04.
With G10A A18G U26C A28U U41C U51A the self-cleavage was 0.07.
G9U A13G A64G showed a self-cleavage of 0.4.
Variant G10A A15U U66C U72C has a self-cleavage of 0.07.
Work on G9U A18U A35U G63U U76C yielded a self-cleavage of 0.04.
Variant G9U A15G A20G A35U has a self-cleavage of 0.19.
G9C C44A A64U A77G showed a self-cleavage of 0.04.
Work on G9U A13G C17A U25C U54A U69C A75G yielded a self-cleavage of 0.06.
With G9U A15G U41C A56C U72C A77G the self-cleavage was 0.19.
Variant G10A A18C A28G G73U has a self-cleavage of 0.06.
With G9U C11G G61A the self-cleavage was 0.32.
For G9U C40U U43A U49C, the self-cleavage was 0.05.
G9U G16A A35G A56G U72C gave a self-cleavage of 0.27.
G9U U31C A35U A64U U72A gave a self-cleavage of 0.03.
G9U G30A U41C C62A U69C showed a self-cleavage of 0.07.
Variant G9C G30C G55U A57G A75G U78C has a self-cleavage of 0.04.
G9C A18G A64G U66C gave a self-cleavage of 0.06.
Variant G9U C38A U54A U58C U60C has a self-cleavage of 0.12.
In the case of G9U A35U U48C U67C A75G, the self-cleavage is reported as 0.09.
In the case of G10A A18G A20U U41C, the self-cleavage is reported as 0.07.
G10A A13U A20G U25C showed a self-cleavage of 0.05.
G10A A13G A45U U48G A56U gave a self-cleavage of 0.1.
In the case of G9U A15G U60C U67C U72C U78C, the self-cleavage is reported as 0.06.
For G9U U43A U69C U78C, the self-cleavage was 0.07.
Variant G9C A18G C40A U80C has a self-cleavage of 0.04.
Work on G10A A15U C29G yielded a self-cleavage of 0.23.
With G10A A18U A20U U31C G46A the self-cleavage was 0.16.
Variant G9U C50U A56G has a self-cleavage of 0.13.
Work on G9U U25A U72C yielded a self-cleavage of 0.07.
With G10A A18G U25A U26C A45U A47G U69A the self-cleavage was 0.03.
With G9U U25A U41G G52U U66A the self-cleavage was 0.05.
Work on G9C U26G U31C A35U yielded a self-cleavage of 0.22.
For G9C C40U U67C, the self-cleavage was 0.14.
Work on G9U C34G A45G C68G yielded a self-cleavage of 0.04.
G9U A21G U31C G36C U51C showed a self-cleavage of 0.03.
With G10A A15U U41A U54A A56C U69A U80A the self-cleavage was 0.05.
Work on G9C C14U A28G U41A A75G yielded a self-cleavage of 0.06.
Variant G10A A15U A35U U41G U48C A56G U72A has a self-cleavage of 0.07.
For G9U A28U C32G U66A, the self-cleavage was 0.04.
With G9U G33U A45G C50G G61A the self-cleavage was 0.09.
G9U A13U G30C U69C U80A showed a self-cleavage of 0.19.
G9U U26G U31C showed a self-cleavage of 0.14.
With G9U A18U A20G A35U G53A U60C the self-cleavage was 0.05.
G9U A56G U69C showed a self-cleavage of 0.06.
In the case of G10A A15C U26A G63A, the self-cleavage is reported as 0.26.
Work on G9U A18U U25C A28U yielded a self-cleavage of 0.04.
With G9C A13G A15G C29U U51C C68A the self-cleavage was 0.28.
In the case of G10A A13G A15G A45U U74A U80G, the self-cleavage is reported as 0.03.
Work on G9U A13G A28U U78C yielded a self-cleavage of 0.22.
G10A A18G U31C gave a self-cleavage of 0.17.
In the case of G9C A15G G16A U31C A35U U41A A47G, the self-cleavage is reported as 0.03.
G9U C59U U76C U78C gave a self-cleavage of 0.08.
G9U A20G U25C U54C A64G U69G gave a self-cleavage of 0.06.
Variant G10A A15G U54G G55U has a self-cleavage of 0.13.
Work on G9C A20U U78C yielded a self-cleavage of 0.51.
With G9U A18G A56G U78C the self-cleavage was 0.07.
Work on G9U A20G A47G U51A U54G yielded a self-cleavage of 0.04.
Variant G10A A13C U51C U54C has a self-cleavage of 0.22.
Work on G9U A21G U31C A64U U74C yielded a self-cleavage of 0.04.

From the RNAGym collection of RNA variant scans (doi:10.1093/nar/gkz1192)
